# Laboratory results from the supplement of paper PMC6609913.
# Counter-ions that a name gives are not always drawn. ± gives the standard deviation of the averaged measurements. Over roughly 1,300 compounds, “normalised cell viability” has its median near 1; the lowest 2% begin near 0.15. The list shows a part of the results.
# Test system: V-C8 + BRCA2 (BRCA2-proficient hamster cells)
# Test: normalised cell viability (fraction of plate median); higher = more viable cells (less toxic)
# Details: 5 µM
# Method in brief: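 Hamster V-C8 cells with and without restored BRCA2 were exposed in 96-well plates to library drugs at 5 μM for 3 days (screen 1) or 6 days (screen 2). Cell viability was scored by resazurin assay, then median-plate normalised, averaging triplicate wells.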
Compound,normalised cell viability (treatment time: 3 days),normalised cell viability (treatment time: 6 days)
CCN1C(=O)NC(c2ccccc2)C1=O (configuration not stated) [Ethotoin],1.03 ± 0.044,0.927 ± 0.087
COc1ccccc1N1CCN(CC(O)COc2cccc3ccccc23)CC1 (configuration not stated) [Naftopidil dihydrochloride],0.897 ± 0.069,0.905 ± 0.033
CN1CCCC(CC2c3ccccc3Sc3ccccc32)C1 (configuration not stated) [Metixene hydrochloride],0.867 ± 0.014,0.888 ± 0.012
CN1CCC(=C2c3ccccc3CC(=O)c3sccc32)CC1 [Ketotifen fumarate],1.08 ± 0.022,1.07 ± 0.076
COc1ccc2c(c1)N(C[C@H](C)CN(C)C)c1ccccc1S2 [Methotrimeprazine maleat salt],0.896 ± 0.044,0.902 ± 0.097
CCCN(CCC)C(=O)C(CCC(=O)O)NC(=O)c1ccccc1 (configuration not stated) [Proglumide],0.993 ± 0.11,0.986 ± 0.14
COc1cc(OC)c(C(=O)CCCN2CCCC2)c(OC)c1 [Buflomedil hydrochloride],1.04 ± 0.096,1.07 ± 0.025
N#CC(c1ccc(Cl)cc1)c1c(Cl)cc(-n2ncc(=O)[nH]c2=O)cc1Cl (configuration not stated) [Diclazuril],0.946 ± 0.021,0.912 ± 0.037
CC(C)(S)[C@@H](N)C(=O)O [Penicillamine],1.05 ± 0.046,1.04 ± 0.06
Cc1cc(C(=O)NNCc2ccccc2)no1 [Isocarboxazid],0.947 ± 0.0096,1.02 ± 0.26
COc1ccc(-c2ccc(=N)n(CCCC(=O)O)n2)cc1 [Gabazine bromide],1 ± 0.1,1.03 ± 0.082
CO[C@H]1C[C@H](O[C@H]2[C@H](C)[C@@H](O[C@@H]3O[C@H](C)C[C@H](N(C)C)[C@H]3OC(C)=O)[C@@H](C)C[C@@]3(CO3)C(=O)[C@H](C)[C@@H](OC(C)=O)[C@@H](C)[C@@H](C)OC(=O)[C@@H]2C)O[C@@H](C)[C@@H]1OC(C)=O [Troleandomycin],1.08 ± 0.027,1.06 ± 0.04
Cn1c(=O)c2c(ncn2CC(=O)O)n(C)c1=O [Acefylline],1.02 ± 0.054,1.01 ± 0.035
CN(C)CC/C=C1\c2ccccc2CSc2ccccc21 [Dosulepin hydrochloride],0.175 ± 0.0046,0.175 ± 0.011
CC(C)(Oc1ccc(Cl)cc1)C(=O)O [Clofibric acid],1.02 ± 0.032,1.01 ± 0.017
CS(=O)(=O)c1ccc(C2=C(c3ccccc3)C(=O)OC2)cc1 [Rofecoxib],1 ± 0.039,1.02 ± 0.06
Cn1c(=O)c2[nH]cnc2n(C)c1=O [Aminophylline],1.14 ± 0.076,1.08 ± 0.035
Cc1ccnc2c1NC(=O)c1cccnc1N2C1CC1 [Nevirapine],1.03 ± 0.087,1.05 ± 0.047
CN(C)CCC=C1c2ccccc2CCc2ccccc21 [Amitryptiline hydrochloride],0.926 ± 0.036,0.985 ± 0.098
Cc1[nH]c(=O)c(C#N)cc1-c1ccncc1 [Milrinone],1.06 ± 0.031,1.02 ± 0.098
C[C@]12CC[C@H]3C(=CCc4cc(O)ccc43)[C@@H]1CCC2=O [Equilin],1.04 ± 0.092,1.03 ± 0.083
